This is one part of the list. At the low end of the ranking, values are background and their order means little.

In this assay the target is SIX1-Q177R homeodomain (UniProt Q15475). Nature of the assay: universal protein binding microarray. To be noted: Universal all-10-mer PBM (8x60K, AMADID 030236), 300 nM GST-tagged protein, Alexa Fluor 488 anti-GST; buffer, salt, pH and temperature not stated; high values mean tight binding; most listed sequences are background and not binding sites; double strand, one strand shown.
Take CGGGTGAC: the binding signal was found to be 0.0886 E-score.

For AGCCCGCA, the binding signal is -0.0273 E-score.

As for ATATATTA, the binding signal was -0.124 E-score.

Turning to CCGCCTGC, the binding signal turned out to be 0.0146 E-score.

Regarding CGCGATAA, the binding signal is -0.258 E-score.

For ACGCATAT, the binding signal was -0.00685 E-score.

CATGAACG: the binding signal was -0.0505 E-score.

For CGTCGTGA, the binding signal is -0.155 E-score.

Regarding AGAGAGAT, the binding signal is -0.13 E-score.

In the case of AACTCTCG, the binding signal was -0.117 E-score.

As to AGCAGTAG, the binding signal was -0.18 E-score.

AACCGGCA: the binding signal is -0.187 E-score.

Turning to CAATGTCC, the binding signal was -0.247 E-score.

For the sequence ATGGAAGC, the binding signal is -0.281 E-score.

For the sequence CAGCGTAA, the binding signal was -0.065 E-score.

For GATGTGAC, the binding signal is -0.0984 E-score.

Regarding GTAACAAA, the binding signal is -0.184 E-score.

In the case of GTCCCAAC, the binding signal was -0.0172 E-score.

Take CAGGACGC: the binding signal was -0.0546 E-score.

In the case of ACTTTATC, the binding signal was -0.119 E-score.

Turning to AGTCGAAA, the binding signal came out at 0.0186 E-score.

Take AATTTGGC: the binding signal was -0.347 E-score.

For GAGCATTA, the binding signal was -0.164 E-score.

In the case of CGCCGGCC, the binding signal was -0.0608 E-score.

Take AGATGGTG: the binding signal is 0.273 E-score.

As to ATGCACCG, the binding signal amounted to 0.117 E-score.

ATTTTTCA: the binding signal was -0.239 E-score.

On to ATTCAGCC, for which the binding signal was -0.103 E-score.

In the case of AGGACGGG, the binding signal turned out to be 0.0231 E-score.

On to TACCTCGA, for which the binding signal amounted to 0.098 E-score.

In the case of AGGCCGTG, the binding signal was 0.0698 E-score.

Take GCAGATAC: the binding signal was found to be 0.12 E-score.

Take CCTACATA: the binding signal was -0.0752 E-score.

ACCTGCTG: the binding signal was -0.0675 E-score.

As to AGGGACAA, the binding signal was -0.25 E-score.

Consider GGTTCGGA, for which the binding signal amounted to 0.0871 E-score.

As to ATGCCGTC, the binding signal was -0.0629 E-score.

With AAACGTTG, the binding signal was -0.27 E-score.

With CACCGTCC, the binding signal is 0.276 E-score.

In the case of CTGTTACC, the binding signal was -0.0154 E-score.

With ATCATTTC, the binding signal was -0.205 E-score.

Turning to CCAGCAGC, the binding signal is -0.0473 E-score.

Consider CATTTATC, for which the binding signal is -0.306 E-score.

In the case of CTGAACAC, the binding signal is 0.422 E-score.

In the case of GGACAGAA, the binding signal is -0.24 E-score.

For CCACTCAG, the binding signal was 0.106 E-score.

CTGTGCGA: the binding signal is -0.222 E-score.

As to GGTATGTA, the binding signal came out at 0.222 E-score.

Regarding GCAACGAA, the binding signal was -0.201 E-score.

With TAGACAGA, the binding signal was -0.263 E-score.

Take ACGAAACC: the binding signal is -0.0585 E-score.

Regarding ACAATCTC, the binding signal was -0.142 E-score.

With ACCCAGCT, the binding signal came out at 0.0773 E-score.

For the sequence CTACAGGC, the binding signal is -0.202 E-score.

Regarding GAGAGTCA, the binding signal came out at 0.0452 E-score.

On to AATTGCGC, for which the binding signal was -0.0634 E-score.

On to ACGGAGCG, for which the binding signal was -0.000245 E-score.

For ACTAGCGA, the binding signal is -0.136 E-score.

As for GTCAGCTA, the binding signal is -0.0689 E-score.

As for AGCTTGGA, the binding signal was -0.316 E-score.

Regarding GCCTGCAA, the binding signal is -0.201 E-score.

AGGAGGGG: the binding signal stood at 0.111 E-score.

Turning to ATCGGCAT, the binding signal was -0.194 E-score.

Consider TCGGCTAA, for which the binding signal is -0.213 E-score.

In the case of CTCCCCGC, the binding signal is 0.168 E-score.

Take ACTACCCA: the binding signal is 0.105 E-score.

CGTCAACG: the binding signal is -0.0236 E-score.

In the case of AGCACGCC, the binding signal came out at 0.0699 E-score.

Take CTGCGTTC: the binding signal was -0.215 E-score.

In the case of CATAATAC, the binding signal was -0.0523 E-score.

For CCTGCCAC, the binding signal is -0.00817 E-score.

With CCTCCGGC, the binding signal was -0.0745 E-score.

For the sequence TAAATACA, the binding signal was found to be 0.129 E-score.

As to GCGGTGAC, the binding signal worked out at 0.00363 E-score.

Regarding ACTGCAAT, the binding signal was -0.0602 E-score.

As for CCAGTCCG, the binding signal is -0.224 E-score.

With CAACGCGG, the binding signal is 0.0978 E-score.

In the case of CCCTCAGA, the binding signal was determined as 0.0322 E-score.

With ACCCCACA, the binding signal was 0.267 E-score.

As to CACCTTCG, the binding signal worked out at 0.315 E-score.

For the sequence CAAGAATA, the binding signal was -0.129 E-score.

Consider CCGCTAAG, for which the binding signal was -0.0137 E-score.

In the case of CTTACGCA, the binding signal was -0.136 E-score.

Turning to AAGCCGGT, the binding signal is -0.0766 E-score.

As for AGCAGACA, the binding signal turned out to be 0.0995 E-score.

Turning to GAGTTGCC, the binding signal is 0.0854 E-score.

Consider GGAGTTAA, for which the binding signal is 0.266 E-score.

Turning to AATGTGTA, the binding signal turned out to be 0.078 E-score.

In the case of CCTAATGA, the binding signal is -0.126 E-score.

Consider CTACAGGA, for which the binding signal worked out at 0.0365 E-score.

With CTGTATCA, the binding signal is -0.195 E-score.

With AATAGTCC, the binding signal was -0.155 E-score.

ATGCGGCC: the binding signal was -0.0153 E-score.

Turning to ACGGTGGG, the binding signal was determined as 0.0981 E-score.

Regarding GCAGTTGA, the binding signal is -0.153 E-score.

As for ATAGACTA, the binding signal was -0.042 E-score.

As to AAATTGCC, the binding signal is -0.098 E-score.

As for CAGATGCA, the binding signal is -0.327 E-score.

On to CCCTTCAG, for which the binding signal came out at 0.044 E-score.

Turning to ACGTGGCT, the binding signal is -0.327 E-score.

On to AGATGGGA, for which the binding signal was -0.0871 E-score.

For the sequence CTCGCACC, the binding signal came to 0.13 E-score.

CGAATTAA: the binding signal was -0.0591 E-score.

On to AATTTTCC, for which the binding signal was determined as 0.00396 E-score.

As to ACGACCAA, the binding signal was -0.00915 E-score.

Consider CCCCGTTC, for which the binding signal was determined as 0.136 E-score.

Consider CTCCCAGC, for which the binding signal is -0.185 E-score.

In the case of ACTAAGGG, the binding signal was 0.1 E-score.

Turning to GCAAATGC, the binding signal was -0.101 E-score.

As for GAAACCTC, the binding signal is 0.093 E-score.

In the case of GGAAGAGA, the binding signal is -0.141 E-score.

With GGTAATGA, the binding signal was -0.0681 E-score.

Take ATAGCCCA: the binding signal was -0.215 E-score.

On to CAAAAATA, for which the binding signal was -0.184 E-score.

For the sequence CCGTGTTA, the binding signal was found to be 0.424 E-score.

Regarding GCGATCCA, the binding signal is -0.0242 E-score.

For CTTTCCAC, the binding signal was -0.107 E-score.

Consider CCAAACTA, for which the binding signal is -0.0317 E-score.

For CTCGTCAC, the binding signal was 0.00048 E-score.

Consider AATACGTA, for which the binding signal was -0.0649 E-score.

Regarding ATAAGAAA, the binding signal was -0.157 E-score.

For the sequence CGCCTTCC, the binding signal is -0.0204 E-score.

In the case of GCCGAAGA, the binding signal is -0.242 E-score.

For the sequence AACGACAA, the binding signal is -0.0802 E-score.

As to ATCCCGCA, the binding signal was 0.0334 E-score.

As for CTTTGGCA, the binding signal was -0.058 E-score.

As for GCTGAAAA, the binding signal is -0.164 E-score.

On to GACTTGAC, for which the binding signal is -0.228 E-score.

Take ATTCTCTG: the binding signal is -0.375 E-score.

Take GTGAGAAC: the binding signal is -0.123 E-score.

Regarding ATGAATAG, the binding signal was -0.0309 E-score.

Regarding AGTATTTG, the binding signal is -0.155 E-score.

Consider GTCGAGAA, for which the binding signal was -0.162 E-score.

For GAGAACAC, the binding signal worked out at 0.381 E-score.

As to CCTCGCGA, the binding signal is -0.0337 E-score.

Regarding AACTTCGC, the binding signal was -0.195 E-score.

For the sequence AATGATTG, the binding signal was -0.171 E-score.

As for ATCACGCA, the binding signal was -0.0335 E-score.

As for AACGCCTA, the binding signal was -0.0842 E-score.

Take TAATTGTA: the binding signal is -0.189 E-score.

Consider ACACCCGA, for which the binding signal was 0.457 E-score.

Turning to CCAGCGAG, the binding signal came to 0.073 E-score.

On to CTAATGGC, for which the binding signal was -0.203 E-score.

With TGTATACA, the binding signal came to 0.283 E-score.

As to ATACTGCC, the binding signal was -0.0409 E-score.

For CATCTCGC, the binding signal is -0.137 E-score.

Consider CTTAATGA, for which the binding signal was 0.0521 E-score.

Take CCCTTTGC: the binding signal was found to be 0.219 E-score.

Turning to CGGCTTTC, the binding signal was -0.108 E-score.

Take ACAACACA: the binding signal was found to be 0.232 E-score.

Turning to GCCGCGAC, the binding signal is 0.000915 E-score.

Turning to CCCAATAA, the binding signal was -0.11 E-score.

Turning to TCGCCACA, the binding signal stood at 0.0792 E-score.

Consider AGCGTAAC, for which the binding signal is -0.126 E-score.

Turning to CCCGTAGA, the binding signal is 0.112 E-score.

Take CCCAACAG: the binding signal is -0.0329 E-score.

As for GGGGGGGA, the binding signal turned out to be 0.0439 E-score.

ATATTCCG: the binding signal is -0.0282 E-score.

On to AGGAAAGA, for which the binding signal is -0.198 E-score.

Consider GAGCGGGA, for which the binding signal is -0.0624 E-score.

Take CGTATCGA: the binding signal was -0.00856 E-score.

Regarding ACGTGCTC, the binding signal was 0.215 E-score.

Regarding AAGGGAGG, the binding signal was -0.0551 E-score.

ACCGCCAG: the binding signal is 0.125 E-score.

ACGCGAGC: the binding signal is -0.0331 E-score.

Consider GAAAAAGC, for which the binding signal was -0.257 E-score.

On to ATGCCTGC, for which the binding signal was -0.158 E-score.

As to CAAAGCTG, the binding signal is -0.159 E-score.

For ATTAGGAA, the binding signal was -0.0661 E-score.

CGGCGGAA: the binding signal was -0.116 E-score.

With AGCAAAAA, the binding signal is -0.172 E-score.

Turning to ATAATACC, the binding signal came to 0.0121 E-score.

The values are drawn from paper PMC10668032.
